Results from article PMC4336329 (PLoS ONE, 2015).
About 14,000 (4.5%) of roughly 310,000 compounds showed an effect of 50% or more. The effect is printed as a negative number. Some of the results follow.

Biological target: human ether-à-go-go-related gene (hERG) potassium channel (human, UniProt Q12809)
Test: primary screen, population patch clamp on CHO cells stably expressing hERG
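Note: peak tail current of the secondary pulse compared with the same well before compound.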

Sequence of human ether-à-go-go-related gene (hERG) potassium channel (Q12809 whole entry, looked up): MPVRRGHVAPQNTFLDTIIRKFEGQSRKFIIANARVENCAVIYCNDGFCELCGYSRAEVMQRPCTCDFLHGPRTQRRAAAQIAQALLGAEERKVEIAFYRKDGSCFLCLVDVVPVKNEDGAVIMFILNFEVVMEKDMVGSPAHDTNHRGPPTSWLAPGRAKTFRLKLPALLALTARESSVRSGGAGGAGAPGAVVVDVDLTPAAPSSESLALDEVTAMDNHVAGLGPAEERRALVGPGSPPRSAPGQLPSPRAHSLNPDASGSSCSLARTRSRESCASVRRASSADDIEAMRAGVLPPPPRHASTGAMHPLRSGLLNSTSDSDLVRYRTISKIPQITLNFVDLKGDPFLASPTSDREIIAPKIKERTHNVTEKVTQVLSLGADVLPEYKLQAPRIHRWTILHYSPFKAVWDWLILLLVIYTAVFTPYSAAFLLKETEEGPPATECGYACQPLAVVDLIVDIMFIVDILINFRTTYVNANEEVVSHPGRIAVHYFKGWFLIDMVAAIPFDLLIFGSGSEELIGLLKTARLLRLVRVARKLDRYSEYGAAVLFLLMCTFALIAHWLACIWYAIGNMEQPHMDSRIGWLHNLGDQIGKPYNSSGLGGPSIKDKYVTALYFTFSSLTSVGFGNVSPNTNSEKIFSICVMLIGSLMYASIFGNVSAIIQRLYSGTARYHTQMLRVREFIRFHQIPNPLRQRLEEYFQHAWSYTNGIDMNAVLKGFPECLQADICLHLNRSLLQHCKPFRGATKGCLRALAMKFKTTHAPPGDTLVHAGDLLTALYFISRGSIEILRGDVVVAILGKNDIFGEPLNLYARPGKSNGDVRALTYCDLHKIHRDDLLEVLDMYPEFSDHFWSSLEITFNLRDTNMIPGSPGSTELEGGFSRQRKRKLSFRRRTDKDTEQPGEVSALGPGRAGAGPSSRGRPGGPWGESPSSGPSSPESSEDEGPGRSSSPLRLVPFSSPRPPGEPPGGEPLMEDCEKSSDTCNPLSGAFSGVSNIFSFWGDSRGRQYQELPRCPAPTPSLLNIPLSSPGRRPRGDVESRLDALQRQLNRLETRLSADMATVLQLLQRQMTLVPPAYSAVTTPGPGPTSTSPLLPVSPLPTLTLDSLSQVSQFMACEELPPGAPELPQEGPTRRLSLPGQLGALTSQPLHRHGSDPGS

Structure (SMILES)	hERG current change (%, negative = inhibition) at 10uM
CC(C)Oc1ccc(C2NC(=O)c3ccccc3O2)cc1 (stereo not shown)	21.4%
CCC(CO)N=C1CC(C)(C)CC(=O)/C1=C(/O)CCCN1C(=O)c2ccccc2C1=O (stereo not shown)	17.2%
COc1ccc(S(=O)(=O)N2CCC(C(=O)Oc3c(OC)cccc3OC)CC2)cc1OC	-8.18%
CCOc1ccc(N(C(C)C(=O)NCc2ccco2)S(C)(=O)=O)cc1 (stereo not shown)	-2.31%
O=C(O)c1cccn2c(=O)c3ccccc3nc12	13.1%
COc1ccccc1C(=O)NNC(=S)NC(=O)c1cc(OC)c(OC)c(OC)c1	0.00238%
O=[N+]([O-])c1cccc(-c2noc(-c3cccs3)n2)c1	9.13%
CCn1c(SCC(=O)Nc2cc(F)ccc2C)nnc1-c1ccccc1O	-11.6%
COc1ccc(NC(=O)C(=O)NCCN2CCN(C(=O)c3ccco3)CC2)cc1	-11.1%
Cc1ccccc1NS(=O)(=O)c1cc(S(C)(=O)=O)ccc1C	14.7%
Nn1c(SCC(=O)N2CCCCCC2)nnc1-c1ccco1	-3.8%
Cc1cccc(C(=O)OC2CCCN(C)C2)c1C.Cl (stereo not shown)	2.36%
COc1ccc(NC(=O)NC2(C(=O)N3CCOCC3)CCCCC2)cc1	15%
COC(=O)c1c(-c2ccccc2)csc1NC(=O)CSc1ncnc2sc(C)c(C)c12	2.42%
O=P(O)(COc1ccccc1)COc1ccccc1	3.08%
Cc1cc(C(=O)NNc2ccc(F)cc2)no1	16.4%
Cc1ccc(CNC(=O)CN(c2cccc([N+](=O)[O-])c2)S(=O)(=O)c2ccccc2)cc1	-25%
CCCCn1c(NCCO)nc2ccccc21	-2.27%
CCC(C)n1c(O)c(C=NCc2cccnc2)c(=O)[nH]c1=S (stereo not shown)	-16.4%
C=CCOc1ccc(/C=C/C(=O)OCC(=O)NCc2ccco2)cc1	9%
COCCC(=O)N1CCC(n2nccc2NC(=O)CCc2ccccc2)CC1	14.2%
COCCCNc1oc(-c2ccccc2F)nc1C#N	-5.33%
COC(=O)c1ccc(/C=C/C(=O)O)cc1	11.9%

Structure (SMILES)	hERG current change (%, negative = inhibition) at 10uM
COc1cccc(OC)c1C(=O)N1CCN(c2ccccn2)CC1	11%
C/C(=N/NC(=O)c1cc(-c2ccc(Br)s2)[nH]n1)c1ccco1	-4.84%
Cc1cccc(N2CCN(C(=O)C3CCN(S(=O)(=O)c4c(C)noc4C)CC3)CC2)c1C	-25.4%
O=C(Nc1ccc(N2CCOCC2)nc1)c1ccc(C(F)(F)F)cc1	16.6%
Cc1ccc(N2CC(C(=O)Nc3cc(C)on3)CC2=O)cc1 (stereo not shown)	2.01%
CC12CCC(C(=O)N(CC3CO3)C1=O)C2(C)C (stereo not shown)	11.9%
O=C(OCC(O)C(O)COC(=O)c1ccccc1)c1ccccc1 (stereo not shown)	-2.63%
CCOc1ccccc1NC(=O)Nc1cccc(S(N)(=O)=O)c1	1.76%
COc1ccc(CN2C(=O)N(c3ccccc3)C(=O)C2CC(=O)Nc2ccccc2)cc1OC (stereo not shown)	10.7%
CN(C)c1ccc(C=C2C(=O)OC(C)(C(C)(C)C)OC2=O)cc1 (stereo not shown)	3.05%
CCOC(=O)c1ccc(S(=O)(=O)NNC(=O)c2ccc3c(c2)nc(C)n3CC)cc1	22.5%
O=C1C2C3CCC(O3)C2C(=O)N1c1cccc(O)c1 (stereo not shown)	13.7%
O=C(CSc1nc2ccccc2[nH]1)Nc1ccc2c(c1)OCCO2	3.01%
COc1ccc(NC(=O)CSc2nc(N)c3cc4c(nc3n2)CC(C)(C)OC4)cc1	0.776%
COC(=O)[C@H](CC(C)C)NC(=O)NCc1ccc(Cl)cc1	0.763%
O=C1N=C2SCCN2/C1=C\c1c(Cl)cccc1Cl	-5.29%
Cc1ccc(S(=O)(=O)CCC(=O)Nc2nc(-c3ccncc3)cs2)cc1	-24%
COCCOc1ccc(C(F)(F)F)cc1NC(=O)COC(=O)C1=COCCO1	-47.3%
CN(C)CCn1c(=O)n(Cc2ccco2)c(=O)c2c3c(sc21)CCCCC3	-50.4%
NC(=O)c1ccc(N=Nc2c(-c3ccccc3)[nH]n(-c3ccccc3)c2=O)cc1	0.511%
Cc1ccccc1C(=O)NNC(=O)C1CCN(c2ncccn2)CC1	13.6%
O=C(CN1C(=O)NC(CCc2ccccc2)C1=O)NC1CC1 (stereo not shown)	18.8%
O=C1N/C(=N\N=C\c2cccs2)SC1Cc1ccc(Cl)c(Cl)c1 (stereo not shown)	16.1%

Structure (SMILES)	hERG current change (%, negative = inhibition) at 10uM
Cc1ccc(C(=O)N/N=C\c2cccs2)cn1	-6.13%
O=C(COC(=O)c1ccc2c(c1)OCO2)Nc1ccccc1F	11.8%
O=C(COC(=O)CCC1CCCC1)Nc1nc2c(F)c(F)c(F)cc2s1	13.5%
C[C@@H](NC(=O)Cn1ccc(NC(=O)OCc2ccccc2)nc1=O)c1cccc2ccccc12	4.77%
O=[N+]([O-])c1cccc(NC(=S)N2CCN(S(=O)(=O)c3ccccc3)CC2)c1	-16.3%
Cn1c(=O)c2c(ncn2CC(=O)N/N=C/C(Cl)=C/c2ccccc2)n(C)c1=O	-25.5%
O=C(c1ccc(-c2nc3ccccc3s2)s1)N1CCOCC1	-6.25%
CCCn1nc(NC(=O)CC(C)C)c2cc3ccccc3nc21	12%
CCn1c(SCc2cccnc2)nnc1-c1c[nH]c2ccccc12	-24%
CCOc1ccc(C(=O)OCC(=O)NC2CCCC2)cc1OCC	8.34%
O=C(NCc1ccco1)C(c1ccc(F)cc1)N(C(=O)Cc1cccs1)c1cccnc1 (stereo not shown)	28.4%
NC(=O)/C=C\C(=O)Nc1cccc(C(F)(F)F)c1	-3.45%
CC1CCC2(CC1)NC(=O)N(NC(=O)c1cccs1)C2=O (stereo not shown)	9.08%
CCC(NC(=O)Nn1cnnc1)(C(F)(F)F)C(F)(F)F	5.79%
C=CCC1NS(=O)(=O)OC(COC)C1C (stereo not shown)	28.7%
Cc1nc2c(-c3ccc(F)cc3)c(C)nn2c(C)c1CCC(=O)Nc1ccccc1	0.666%
Cc1ccc(CNC(=O)CSc2c3c(nc4cc(Cl)ccc24)CCCC3)o1	-8.63%
CCN(CC)/C(=N/S(=O)(=O)c1ccc(C)cc1)c1ccccc1	5.07%
Cl.Cn1c(=O)c2c(nc(N3CCOCC3)n2CCNC2=NCCC2)n(C)c1=O	-0.137%
Cc1ccc(C(=O)CSc2nnc(COc3ccccc3)o2)cc1	2.36%
O=C(c1cccc(Br)c1)N1CCN(C(=O)c2cccc(Br)c2)CC1	-28.5%
C=CCc1cccc(/C=N/n2cnnc2)c1O	-4.97%
COc1cc(/C=N/NC(=O)c2cc(C)n(-c3ccc(F)cc3)c2C)cc(OC)c1O	-13.4%

Structure (SMILES)	hERG current change (%, negative = inhibition) at 10uM
Cc1[nH]n(-c2ccccc2)c(=O)c1C(C[N+](=O)[O-])c1ccc(Br)cc1 (stereo not shown)	-9.61%
C/C(=N\NC(=O)CCC(=O)NCc1ccccc1)c1ccco1	10.9%
CC(C)N(C(=O)COC(=O)[C@@H]1CC(O)CN1S(=O)(=O)c1ccc(C(C)(C)C)cc1)C(C)C (stereo partly shown)	-12.6%
CC(C)NC(=O)NC(=O)COC(=O)C1CCCN1C(=O)c1cccs1 (stereo not shown)	0.855%
CCOc1ccc(NC(=O)c2ccc(NS(=O)(=O)c3cccs3)cc2)cc1	11%
O=C(COc1ccc2ccccc2c1)N1CCN(C2CCN(Cc3ccccc3)CC2)CC1	-77.7%
CCOc1ccccc1-c1cc(C(=O)N/N=C(\C)c2cccnc2)c2ccccc2n1	-2.45%
COc1ccc(CN2CC(C(=O)NCCN3CCN(c4ccccc4F)CC3)CC2=O)cc1 (stereo not shown)	-10.5%
CC(C)N1CCN(CC#Cc2ccccc2)CC1CCO (stereo not shown)	-9.9%
Cn1nc(C(F)(F)F)c2cc(C(=O)Nc3ccc(F)cc3)sc21	-22.7%
COc1ccc(C(=O)N/N=C/c2ccccn2)cc1OC	13.6%
Cc1ccc(NC(=S)N(CCCN2CCC(C)CC2)Cc2ccco2)cc1	-72%
CCC[n+]1c(C)sc2c3c(ccc21)CCCC3.[I-]	17%
NC(=O)CSCc1nc2ccccc2s1	17.3%
O=C(CCCN1C(=O)/C(=C/c2cccs2)SC1=S)Nc1cc([N+](=O)[O-])ccc1O	21.1%
CC(NC(=O)C1CSC2(C)CCC(=O)N12)c1ccccc1Cl (stereo not shown)	-8.44%
S=c1[nH]nc(CN2CCCCC2)n1Cc1ccccc1	-5.08%
CCN(CC)CCNC(=O)CCCCCn1c(=O)[nH]c2cc(C(=O)OC)ccc2c1=O	-3.88%
C=CCN1C(=O)C2(OCCCO2)c2c(C)ccc(C)c21	-9.94%
COCc1cc(C)nc2sc(C(=O)Nc3ccccc3C)c(N)c12	5.65%
O=C(Nc1cccc(-c2cscn2)c1)C1CCN(Cc2ccsc2)CC1	-65%
N/C(=N\OC(=O)c1cccc(Br)c1)c1ccc([N+](=O)[O-])cc1	17.7%
